For 167 variants, self-cleavage results are on record in the RNAGym collection of RNA variant scans (doi:10.7554/elife.90254).

First the molecules themselves.
B1: LINE1-mini (parent)
chain: GGCAGAGCUCAACACAGCGUGGCAAAGUGGCUGUGGCUAGACUGCC

Read counts are not given, so values of variants with three or more changes are uncertain.

The variants in this series derive from B1. The series can be described thus: self-cleavage, relative activity (ratio to wild type); higher = more cleavage; in vitro, sequencing; the parent is a self-cleaving ribozyme.
Turning to A6G A16G G21C, the self-cleavage was 0.03.
For A6U A12U G21C U34A the value was 0.05; for A6G C13A U20G G27A C31G, 0.02; for A6U A24G C31U C42G, 0.01.
For A6G C23A U38A, the self-cleavage is 0.01.
In the case of A6G C13G U32G G33U it was 0.02.
For A6C C15A U28A G29A G30U the value was 0.04.
For A6G A24U A26U G27C C31G the value was 0.05; for A6G U20A C37U, 0.04; for A6G C10A A41G, 0.01.
A6G C15U C46U: the self-cleavage is 0.15.
For A6C C13U G44A the value was 0.09; for A6G C8A U9A G35A, 0.36.
Turning to A6G G7A C13U C37U, the self-cleavage was 0.19.
In the case of A6C C23G G35U, the self-cleavage was determined as 0.07.
In the case of A6U A12G U28A G30C C31G it was 0.01.
With A6G A14G A26U, the self-cleavage was 0.08.
As for A6G C37G C42U C46A, the self-cleavage turned out to be 0.2.
For A6C C10A C23U G30U G44A the value was 0.02; for A6U A11C A16C G19A G40C, 0; for A6C G29U G35A U38C, 0.07.
For A6G C10A G19U G35A the value was 0.02; for A6G U9A C10G U20C A24U C31A G35C U38G, 0.
For A6G G21A C37G U43C the value was 0.02; for A6G G7U C15A G35U, 0.03; for A6C C10A A25G G27C C31A, 0.02.
Regarding A6G G7C G17U G27A C45G, the self-cleavage came to 0.08.
In the case of A6G G17U C23U G36A A41U it was 0.17; in that of A6G C18U C23G, 0.2; in that of A6G C18G G27U, 0.2.
For A6C C15U U34A G36U C42G the value was 0.02; for A6G G19A G21A G33C C42U, 0.02.
With A6C U20A U32A, the self-cleavage turned out to be 0.1.
In the case of A6C U9A G19U A26C it was 0.04; in that of A6G U38C A39C, 0.01; in that of A6G C15A A16G U20A, 0.01.
In the case of A6C C10G G30C U38A it was 0.01; in that of A6G U20A U32C C37G U43G, 0.03.
For A6G A16U G17C A26G C45U the value was 0.07; for A6G G27U C46U, 0.2.
Turning to A6G C18A G35C, the self-cleavage is 0.06.
In the case of A6G C8G C18A G40C it was 0.
In the case of A6G G29A G33C G35U G40C U43A it was 0.02; in that of A6U A11C C13U G19U G27U C37G, 0.
In the case of A6G C13A G17A it was 0.03; in that of A6C C13G G17U G35U, 0.06; in that of A6C G7C U9C A16G G17U, 0.04.
For the variant A6C U9C A11C, the self-cleavage amounted to 0.05.
For the variant A6G U28A G30U, the self-cleavage was found to be 0.08.
Consider A6U A11G C13A C15A G36C C37U, for which the self-cleavage is 0.05.
In the case of A6G C13A C23G A25C U34C C37G it was 0.04.
In the case of A6C C10U C13U C45U C46A, the self-cleavage was 0.03.
In the case of A6G C18U A25C it was 0.04; in that of A6G G19A G22C C42U, 0.02; in that of A6C C8U G19C, 0.12.
On to A6G G21U A24G C45A, for which the self-cleavage came out at 0.04.
For the variant A6C G29U G44U C45G, the self-cleavage worked out at 0.21.
For A6C G22A C37A A39C the value was 0.02; for A6C G21U A26U G36A C46U, 0; for A6G G19C G21U C23U G30A U38C, 0.02.
With A6U A12C C37G, the self-cleavage was found to be 0.
For A6C C13U A26G U43C C45G the value was 0.09; for A6C G19U G21U U34G A41U C42A, 0.23.
In the case of A6C U38A C42A it was 0.07; in that of A6G A12C G21U G35U, 0.02.
Consider A6G G27C U28A G36A, for which the self-cleavage is 0.05.
In the case of A6G C8A C13U C37A A39U C46U it was 0.07; in that of A6U A16C C23A G33A, 0.08; in that of A6G C23G G29C, 0.03.
For the variant A6U A12G A41C C45U, the self-cleavage is 0.08.
For A6C G27U C31G C45A C46G the value was 0.
For A6C G7C G29A the value was 0.1.
For the variant A6G C8G A39U, the self-cleavage was 0.01.
In the case of A6G A14C C42U G44C it was 0.03; in that of A6C U9C A26G G35A, 0.06.
In the case of A6G C15A G27A it was 0.22.
For A6C G36U A39G C46U the value was 0.03; for A6U A12U A24G, 0.15; for A6G A11C G29C, 0.02.
As to A6G G19A A26G C45G, the self-cleavage was 0.05.
In the case of A6G A11U A25C it was 0.01; in that of A6C G19U A24G, 0.28; in that of A6G C10A G30C, 0.01.
A6C U34C U43A: the self-cleavage is 0.06.
For A6G C15G G17U C18A U43A the value was 0.01; for A6U A11G U38A, 0.02.
In the case of A6G G35U G40U it was 0.09; in that of A6C C13U G29U G33A, 0.11; in that of A6G C37A A39G C42G U43C, 0.01.
In the case of A6C C18U G22U G40C C45G it was 0.03.
For A6C C18U C45U, the self-cleavage is 1.22.
For A6G U20C G21C A26G, the self-cleavage is 0.01.
In the case of A6G C10A A12U it was 0.03; in that of A6C U9A C31G U34C, 0; in that of A6G A11U U43G, 0.
Take A6G A14U U20G A41C: the self-cleavage worked out at 0.06.
For A6G A26G C42A the value was 0.05.
For A6G C13A A26U the value was 0.05.
For A6G U9A C13A C42G the value was 0.01; for A6C C10U G40U, 0.06; for A6G U20G A39C, 0.
A6G C15U G36U: the self-cleavage was determined as 0.06.
In the case of A6G C15U G36C it was 0.02; in that of A6C C10U U32G G36U, 0.03; in that of A6C G22U C23A G44C, 0.06.
As for A6G C10A A25U G35A, the self-cleavage worked out at 0.02.
On to A6G U20G C45A, for which the self-cleavage turned out to be 0.12.
In the case of A6G C8G C18A G22C G30A it was 0.04.
Take A6C G17A U34C G36C U43A: the self-cleavage was determined as 0.02.
In the case of A6G A25U U28G, the self-cleavage is 0.05.
As to A6C G29A C31A, the self-cleavage is 0.03.
Take A6U A12U A14G G17A G40U: the self-cleavage stood at 0.02.
In the case of A6G G17A G19C U38C it was 0.05; in that of A6C C31G G33A G36C, 0.07.
Turning to A6C G21C C46A, the self-cleavage worked out at 0.84.
In the case of A6C C18U G22C it was 0.99.
For A6U A25C A41C the value was 0.02.
For A6C C31G U34C, the self-cleavage was 0.06.
As for A6C U9A C18G G40A, the self-cleavage amounted to 0.05.
For A6U A16G U32G A39G the value was 0.02; for A6G U9A A11G G17A G19U A24C U32G G33C, 0.01; for A6U A11C C13G G19C G40A A41U, 0.
In the case of A6U A11U C13G C18G A25U it was 0.
For A6C G7U A11G C13A G27A A39G the value was 0.01; for A6G A14G C18U U20C, 0.12; for A6G A14G G22C A24U G27C, 0.02.
A6G U20G C42U: the self-cleavage came to 0.04.
For A6G G27C G33U the value was 0.1; for A6G G17C G40U, 0.05; for A6U A24G A25G, 0.19.
For A6G G19U C31U C37U the value was 0.01; for A6C C15A U38A, 0.05; for A6G U9A C15U C45U, 0.14.
In the case of A6G C8A G21C A24U C37U it was 0.03; in that of A6U A14U C31U, 0.06.
Turning to A6C G30C G33A C42G, the self-cleavage turned out to be 0.04.
In the case of A6G U20C C37G it was 0.02; in that of A6C G17A A25C C45U, 0.08; in that of A6G C8A G27A G29U C42U, 0.07.
Regarding A6C G7A C18G U20C G35U U43C, the self-cleavage stood at 0.26.
In the case of A6G C10U G17U G19C U20G it was 0.02; in that of A6C G30U C31A A39G, 0.06; in that of A6C G21A C37G A39G A41G, 0.01.
For A6G U9G C18U C45A the value was 0.01; for A6C C31U U34C G40A, 0.03.
Turning to A6U A25U G27A, the self-cleavage worked out at 0.14.
For A6G A12G A39U G40A the value was 0.03; for A6G C13U C15G G44A, 0.01; for A6U A12G C13A, 0.1.
For A6G C37G U38C the value was 0.01.
For A6G G17C G36U the value was 0.04; for A6C C13A C23U U38G, 0.07; for A6C C15A G21U C46G, 0.03.
Turning to A6G C8U U20A G40C, the self-cleavage is 0.07.
In the case of A6C C10U C23A G40U C45A it was 0.01.
On to A6G C10A C18G G22U G27A G36U G44C, for which the self-cleavage worked out at 0.04.
As for A6G G7U U38A, the self-cleavage is 0.02.
For A6G C10A G17A the value was 0.01; for A6G C13A U38G, 0.02.
On to A6G U9G A12C U20G A25U G35U C37U, for which the self-cleavage stood at 0.
In the case of A6C C15U C45A it was 0.06; in that of A6G C23U C37U, 0.06.
As to A6C G35A C46A, the self-cleavage was found to be 0.36.
In the case of A6G G22C C46A, the self-cleavage is 0.08.
For A6C G33U U34A G40U the value was 0.02; for A6G G17C U32C C46G, 0.03.
In the case of A6G C15U A24U it was 0.09.
